# Screen size: about 360,000 compounds; about 25,000 (6.9%) were called active. The shares of active, inactive and inconclusive entries below differ from those in the screen. Calls follow the shape of the dose curve; as a rule, active = well fitted inhibition curve with a large enough effect; inconclusive = small, poorly fitted or top-dose-only effect; inactive = flat fitted curve, though single readings scatter. Where the call is inconclusive, the potency comes from a doubtful curve fit.
# Molecular target: Luciferin 4-monooxygenase (Photinus pyralis) (UniProt P08659)
# Test: qHTS profiling assay for firefly luciferase inhibitor/activator using purifed enzyme and Km concentrations of substrates (counterscreen for miR-21 project); also: nearly all actives have a fitted effect of over 55% in size
# Conditions: purified FLuc, luminescence inhibition; series mostly up to 57.5 µM
# Method in brief: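 Purified P. pyralis luciferase (10nM final) with 10uM D-luciferin and 10uM ATP (Km levels) in 50mM Tris acetate pH 7.5, 10mM Mg acetate, 0.01% Tween-20, 0.05% BSA; qHTS 6-point titration, ~60 µM downward; luminescence read.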
# Potency is read from the fitted curve at half-maximal effect; tags tell the direction and shape of the fitted curve.
# UniProt P08659, sequence (P08659 whole entry, looked up): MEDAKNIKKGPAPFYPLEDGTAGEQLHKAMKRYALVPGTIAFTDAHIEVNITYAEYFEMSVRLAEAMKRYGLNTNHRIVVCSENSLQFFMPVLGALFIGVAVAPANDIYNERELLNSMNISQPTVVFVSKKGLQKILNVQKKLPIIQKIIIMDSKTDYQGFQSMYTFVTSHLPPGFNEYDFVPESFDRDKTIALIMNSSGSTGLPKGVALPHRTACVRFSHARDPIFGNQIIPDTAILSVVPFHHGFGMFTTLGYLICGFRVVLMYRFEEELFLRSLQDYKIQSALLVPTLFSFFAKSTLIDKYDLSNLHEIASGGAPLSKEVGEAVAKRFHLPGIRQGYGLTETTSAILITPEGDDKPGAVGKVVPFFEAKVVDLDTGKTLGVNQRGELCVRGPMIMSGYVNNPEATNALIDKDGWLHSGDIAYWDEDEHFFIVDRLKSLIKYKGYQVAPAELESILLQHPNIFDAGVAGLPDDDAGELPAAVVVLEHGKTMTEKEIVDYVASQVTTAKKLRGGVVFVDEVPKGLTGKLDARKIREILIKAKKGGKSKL
row,Compound,Potency
1,CSc1nnc(-c2ccco2)c(-c2ccco2)n1,"inconclusive: 13.5 µM [inhibitor, partial curve, poor fit]"
2,COC(=O)c1ccc(OC(=O)c2ccccc2F)cc1,active: 13.5 µM
3,Cc1ccc(CNC(=O)Cc2ccc(-n3c(=O)[nH]c4ccsc4c3=O)cc2)cc1,"inconclusive: 26.9 µM [inhibitor, single point]"
4,CCN(CC(=O)Nc1ccc(NC(C)=O)cc1)C(=O)C1(c2ccccc2)CC1,inactive
5,COc1ccc(NC(=O)CCc2nc(-c3ccc(C)cc3)no2)cc1Cl,"inconclusive: 7.57 µM [inhibitor, partial curve, poor fit]"
6,Cc1ccc2nc(Nc3ccc(C)c(C)c3)c3nncn3c2c1,"inconclusive: 15.1 µM [inhibitor, partial curve]"
7,COC(=O)c1cn[nH]c1NC(=S)Nc1ccc(Cl)c(Cl)c1,active: 0.426 µM
8,O=C(CC12CCC(CC1)C2)NCc1ccc2c(c1)OCO2,"inconclusive: 23.9 µM [inhibitor, single point]"
9,O=C(CCN1c2ccccc2Sc2ccccc21)OCC(=O)N1CCN(C(=O)c2ccco2)CC1,"inconclusive: 26.9 µM [inhibitor, single point]"
10,Cc1ccc(-c2nn(-c3ccc(F)cc3)cc2C(=O)N2CCN(C3CCS(=O)(=O)C3)CC2)cc1 (configuration not stated),"inconclusive: 13.5 µM [inhibitor, partial curve]"
11,COc1cc(/C=C2\SC(=S)N(NC(=O)c3cccc(O)c3)C2=O)ccc1O,active: 10.7 µM
12,O=C(COC(=O)COc1cccc(Br)c1)Nc1c(Cl)cccc1Cl,inactive
13,COc1ccc(-c2nc3ccccn3c2NCc2ccc3c(c2)OCO3)cc1,active: 4.78 µM
14,O=C(/C=C/Nc1cccc(C(F)(F)F)c1)c1ccc(Oc2ncccn2)cc1,active: 12 µM
15,CCOc1ccc(C(=O)C2CCN(CC(=O)Nc3ccccc3N3CCOCC3)CC2)cc1,inactive
16,COCc1cc(C)nc(N/N=C/c2ccc(-c3cc(C(=O)O)ccc3Cl)o2)c1C#N,"inconclusive: 26.9 µM [inhibitor, partial curve, poor fit]"
17,Cc1cc(NC(=O)/C=C/c2ccccc2Cl)no1,"inconclusive: 1.51 µM [inhibitor, partial curve, poor fit]"
18,COc1ccc(NC(=S)NC(=O)c2ccc(Br)o2)cc1,active: 9.53 µM
19,O=C(Nc1nc(-c2ccccn2)cs1)c1ccco1,"inconclusive: 23.9 µM [inhibitor, single point]"
20,COc1ccccc1CNC(=O)C1CCN(S(=O)(=O)c2ccc3nc4c(c(C(=O)O)c3c2)CCCC4)CC1,inactive
21,Cc1ccc(NC2CCCN(C(=O)c3cccs3)C2)cc1C (configuration not stated),"inconclusive: 37.9 µM [inhibitor, partial curve, poor fit]"
22,CC(C)NC(=O)c1ccccc1-c1nc(-c2ccccc2Cl)no1,active: 15.1 µM
23,COCCn1c(-c2ccccc2)nc2ccccc21,"inconclusive: 30.1 µM [inhibitor, partial curve, poor fit]"
24,Cc1cccc(-c2nn(-c3ccccc3)cc2C(=O)N2CCN(C3CCS(=O)(=O)C3)CC2)c1 (configuration not stated),"inconclusive: 30.1 µM [inhibitor, partial curve, poor fit]"

row,Compound,Potency
1,CCOC(=O)C1CCCCN1C(=O)CCc1c(C)nc2cc(-c3ccccc3)nn2c1C (configuration not stated),active: 15.1 µM
2,COc1ccc(-n2c(SCC(=O)NCc3ccc(Cl)cc3)nc3ccsc3c2=O)cc1,inactive
3,O=C1CC(c2ccccc2)c2cc(O)ccc2O1 (configuration not stated),"inconclusive: 37.9 µM [inhibitor, single point]"
4,CN1C(=O)C(O)(CC(=O)/C=C\c2ccc3c(c2)OCO3)c2ccccc21 (configuration not stated),"inconclusive: 37.9 µM [inhibitor, single point]"
5,CCOC(=O)c1cnn(-c2nc(-c3ccc(F)cc3)cs2)c1C(F)(F)F,"inconclusive: 37.9 µM [inhibitor, partial curve, poor fit]"
6,COc1ccc(-n2cnnc2SCC(=O)NCc2cccs2)cc1,inactive
7,C=CCn1cc(C(=O)NCC2CCCO2)c(=O)c2cc(S(=O)(=O)N3CCCCCC3)ccc21 (configuration not stated),inactive
8,O=S(=O)(c1ccc(Cl)cc1)c1nc(-c2cccs2)oc1N1CCCCC1,inactive
9,CCc1cc2c(cc3c(=O)n(CC(=O)NC(C)c4ccccc4)ncn32)s1 (configuration not stated),inactive
10,CCCn1c(C2CC(=O)N(c3cc(OC)ccc3OC)C2)nc2ccccc21 (configuration not stated),inactive
11,C/C(=N\NC(=S)NCCc1ccccc1)c1ccc(O)cc1O,"inconclusive: 26.9 µM [inhibitor, partial curve, poor fit]"
12,CCc1ccccc1NC(=O)C1CCN(S(=O)(=O)c2cn(C)cn2)CC1,inactive
13,Cc1cc(Nc2ccc(Br)cc2)nc(C)n1,active: 21.3 µM
14,Nc1[nH]c(N=NC(=O)c2ccccc2)c2ccccc12,active: 4.78 µM
15,CCOC(=O)COc1cc(N)c(Cl)cc1Cl,"inconclusive: 37.9 µM [inhibitor, partial curve, poor fit]"
16,COc1ccc(N=Nc2cc(-c3ccccc3)ccc2O)cc1,active: 23.9 µM
17,NS(=O)(=O)c1cccc(NC(=O)/C=C/c2cccs2)c1,active: 7.57 µM
18,CC(=O)N1CCCc2ccc(NS(=O)(=O)c3cccc(Cl)c3)cc21,"inconclusive: 37.9 µM [inhibitor, partial curve, poor fit]"
19,O=C(Nc1ncc2c(n1)-c1ccccc1CC2)c1ccc(F)cc1,"inconclusive: 19 µM [inhibitor, partial curve, poor fit]"
20,O=C(/C=C/c1ccc(Cl)cc1Cl)NCCSCc1ccccc1,"inconclusive: 21.3 µM [inhibitor, single point]"
21,O=C(Nc1ncccc1O)c1ccc(Oc2ccccc2)cc1,active: 6.75 µM
22,O=C(Nc1ccc2c(c1)OCCO2)C1CCCN(S(=O)(=O)c2cccc3nsnc23)C1 (configuration not stated),"inconclusive: 21.3 µM [inhibitor, partial curve, poor fit]"
23,O=C(CC(NC(=O)C(F)(F)F)c1ccccc1)Nc1nnc(CCc2ccccc2)s1 (configuration not stated),inactive

# Reference: PubChem BioAssay AID588342 (National Center for Advancing Translational Sciences (NCATS), 2011)
